Some of the results follow. Sequences were assembled here from the parent chain. Values near 0.05 are background.
B1: TEV protease; numbered along this chain (parent)
chain: MGESLFKGPRDYNPISSSICHLTNESDGHTTSLYGIGFGPFIITNKHLFRRNNGTLVVQSLHGVFKVKDTTTLQQHLVDGRDMIIIRMPKDFPPFPQKLKFREPQREERICLVTTNFQTKSMSSMVSDTSCTFPSGDGIFWKHWIQTKDGQCGSPLVSTRDGFIVGIHSASNFTNTNNYFTSVPKNFMELLTNQEAQQWVSGWRLNADSVLWGGHKVFMVKPEEPFQPVKEATQL

Variants of: B1
Assay: raw area under fraction-flipped curve 0-4 h after induction (AUC4h, not background-subtracted), DNA-recorder readout of cleavage of the substrate (dimensionless); higher = more cleavage of the substrate by the protease variant
Conditions: temperature: 34 °C; time window: 0-4 h after rhamnose induction
Experimental: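 In vivo DNA recorder in E. coli TOP10(DE3) ΔrhaA at 34 °C. Each TEVp single-site mutant (parent TEVp 0) is paired with a single-site variant of the 7-mer TEVs (canonical ENLYFQ|S). The substrate sits between flexible linkers in a Bxb1-sfGFP-TEVs-SsrA fusion, so cleavage stabilises Bxb1 and speeds flipping of a recombination array, read by NGS. The value is the raw area under the fraction-flipped curve over 0-4 h after rhamnose induction (AUC4h), with ≥20 reads per time point. It is not background-subtracted; inactive controls average about 0.047.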
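Also: Bxb1 expression induced with 0.2% (w/v) L-rhamnose at OD600 near 0.5, cultures sampled hourly, flipped fraction per protease–substrate barcode pair counted by paired-end Illumina sequencing.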

| Variant | area with substrate ENAYFQS | area with substrate ENCYFQS | area with substrate ENDYFQS | area with substrate ENEYFQS | area with substrate ENFYFQS | area with substrate ENGYFQS | area with substrate ENHYFQS | area with substrate ENIYFQS | area with substrate ENKYFQS | area with substrate ENMYFQS | area with substrate ENPYFQS | area with substrate ENQYFQS | area with substrate ENSYFQS | area with substrate ENVYFQS | area with substrate ENWYFQS | area with substrate ENNYFQS | area with substrate ENRYFQS | area with substrate ENTYFQS | area with substrate ENYYFQS |
| --- | --- | --- | --- | --- | --- | --- | --- | --- | --- | --- | --- | --- | --- | --- | --- | --- | --- | --- | --- |
| R160E | 0.068 | 0.0838 | 0.0634 | 0.0612 | 0.0668 | 0.0543 | 0.0565 | 0.0911 | 0.0581 | 0.0705 | 0.0606 | 0.0504 | 0.0602 | 0.08 | 0.0573 |  |  |  |  |
| R160G | 0.0674 |  | 0.0575 | 0.0617 | 0.0633 | 0.0372 | 0.0573 | 0.11 |  |  |  | 0.0812 | 0.0708 | 0.0685 |  | 0.0641 | 0.0448 | 0.0732 | 0.0508 |
| R160C | 0.0881 | 0.0839 | 0.0607 | 0.0563 | 0.0673 | 0.0821 | 0.0613 |  | 0.0805 |  | 0.044 | 0.0502 | 0.0611 | 0.0734 | 0.0457 |  |  |  | 0.0503 |
| R160Q | 0.064 | 0.0562 | 0.0621 |  | 0.0726 |  | 0.0581 | 0.1 |  |  | 0.0652 | 0.0398 | 0.0654 | 0.0713 |  | 0.0519 | 0.0578 | 0.0803 | 0.107 |
| R160F | 0.0727 | 0.0432 | 0.0668 | 0.0726 | 0.0748 | 0.0798 | 0.0565 | 0.1 | 0.0623 |  | 0.0565 | 0.0577 | 0.0539 |  | 0.0579 | 0.0629 | 0.0552 | 0.0644 |  |
| V157G | 0.0535 | 0.0563 | 0.0578 | 0.0685 | 0.0625 | 0.0395 | 0.0621 |  | 0.0596 |  | 0.0457 | 0.0553 | 0.0429 |  | 0.0207 |  |  |  |  |
| G136F | 0.0599 | 0.0741 | 0.074 | 0.0548 | 0.102 | 0.0747 | 0.0609 | 0.0987 | 0.0662 |  | 0.072 | 0.0626 | 0.0633 | 0.0875 | 0.0275 |  | 0.0593 |  | 0.0476 |
| G136A | 0.0492 | 0.0594 | 0.066 | 0.0513 |  |  |  |  | 0.058 |  |  | 0.0619 | 0.0616 | 0.0695 |  |  | 0.0606 |  |  |
| G136E | 0.0435 | 0.0647 | 0.0703 | 0.0322 | 0.0635 | 0.0339 |  |  | 0.0564 |  | 0.056 | 0.0507 | 0.049 | 0.0729 |  | 0.0649 | 0.0405 | 0.0677 | 0.054 |
| G136K | 0.07 | 0.0584 | 0.0665 | 0.0571 | 0.0642 | 0.0769 |  | 0.0752 |  |  |  |  |  | 0.0611 | 0.0348 | 0.0724 |  | 0.0478 |  |
| K142Y | 0.0683 | 0.0532 | 0.0689 | 0.06 | 0.0575 | 0.059 |  | 0.121 |  | 0.0931 |  | 0.0615 | 0.0802 | 0.0943 |  | 0.0467 |  | 0.0689 |  |
| D149G | 0.0513 | 0.0572 | 0.0597 | 0.0602 | 0.0637 | 0.0518 | 0.0621 | 0.0761 | 0.067 | 0.066 | 0.0786 | 0.0573 | 0.0562 | 0.115 | 0.0059 | 0.0583 | 0.0597 | 0.0525 |  |
| I145E | 0.0474 |  | 0.0518 |  |  | 0.0503 |  |  |  |  |  |  | 0.0616 | 0.0694 |  | 0.05 |  |  |  |
| I145R | 0.0643 |  | 0.0736 | 0.0463 |  | 0.042 | 0.0637 |  |  | 0.0517 |  |  |  | 0.0519 |  |  | 0.0609 | 0.0541 |  |
| I145T | 0.0615 | 0.0647 | 0.0565 | 0.059 | 0.0617 | 0.0605 | 0.0536 |  | 0.0656 | 0.0923 | 0.0559 | 0.0532 | 0.0548 | 0.0715 |  | 0.0661 | 0.0611 | 0.0601 | 0.0615 |
| L156N | 0.0479 | 0.048 | 0.0669 | 0.0517 | 0.0522 | 0.0543 | 0.0408 | 0.0556 | 0.0544 | 0.0468 | 0.0435 | 0.0538 | 0.0612 | 0.0477 | 0.0549 | 0.0362 |  | 0.0527 | 0.0512 |
| T174L | 0.0521 |  |  | 0.0685 |  |  |  |  |  | 0.0712 |  |  | 0.0272 |  |  |  |  |  |  |
| T174R | 0.0384 | 0.0636 | 0.0611 | 0.0736 | 0.0661 | 0.0769 | 0.0634 | 0.0412 |  | 0.0729 | 0.0578 | 0.0684 | 0.0572 | 0.129 | 0.0529 | 0.0579 | 0.0658 | 0.0679 | 0.0805 |
| P184Q | 0.0553 | 0.0577 | 0.0531 | 0.0477 | 0.0612 |  | 0.0475 | 0.0928 |  |  | 0.0588 | 0.0606 | 0.0456 | 0.0534 | 0.0617 | 0.0546 | 0.0426 | 0.0519 |  |
| P184R | 0.0491 | 0.0607 | 0.0434 | 0.0555 | 0.0524 | 0.0591 |  |  |  |  | 0.0695 | 0.035 | 0.0634 |  |  |  | 0.0497 |  |  |
| P184A | 0.0529 | 0.0615 | 0.0581 | 0.0686 | 0.0614 | 0.0574 | 0.0591 | 0.0783 | 0.0537 | 0.0701 | 0.0534 | 0.0601 | 0.0594 | 0.0656 |  | 0.0534 | 0.0528 | 0.0585 | 0.0606 |
| V183K | 0.0634 | 0.0665 | 0.0516 | 0.0681 | 0.0473 | 0.0617 | 0.0598 | 0.0573 |  | 0.0485 | 0.0651 | 0.0555 | 0.051 | 0.0648 |  | 0.06 | 0.0596 | 0.0595 |  |
| T132M | 0.0593 | 0.0532 | 0.0527 | 0.058 | 0.0455 | 0.0712 | 0.0522 | 0.124 |  | 0.0783 | 0.0625 | 0.0705 | 0.058 |  |  | 0.0613 | 0.054 | 0.0696 | 0.0628 |
| G153V | 0.0508 | 0.053 | 0.053 | 0.0367 |  | 0.0567 | 0.0491 |  | 0.0501 |  | 0.0447 | 0.0449 |  |  |  | 0.0539 | 0.0593 | 0.0444 |  |
| G153R | 0.0513 |  |  |  | 0.0551 |  |  |  |  |  |  |  |  |  |  |  |  |  |  |
| Y179M | 0.0853 |  |  | 0.0607 |  |  |  |  | 0.0862 |  | 0.0565 | 0.0499 |  | 0.0638 | 0.0533 | 0.0678 | 0.0609 |  |  |

— the supplement of paper PMC12217912
